The list shows a part of the results.
Legend:
Experiment in all cases: glycan array binding signal (z-score within array); higher = stronger binding
Details in all cases: glycan notation: IUPAC condensed, linker removed
[1] = molecular target: Neu5Ac(a2-3)Gal6S(b1-4)GlcNAc
Summary of the method: (§1)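 The binding signal is a Z-score computed within each array. Data were drawn from 3228 arrays in the Consortium for Functional Glycomics database, restricted to those with a known protein sequence. Scores were averaged over arrays of the same protein sequence at different concentrations or buffers, and over linkers, and negative values can be taken as non-binding.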

[2] = molecular target: Neu5Ac(a2-3)Gal6S(b1-4)[Fuc(a1-3)]GlcNAc
Summary of the method: as §1

Neu5Ac(a2-3)GalNAc = molecular target: Neu5Ac(a2-3)GalNAc
Summary of the method: as §1

[3] = molecular target: Neu5Ac(a2-3)GalNAc(b1-4)GlcNAc
Summary of the method: as §1

[4] = molecular target: Neu5Ac(a2-3)[GalNAc(b1-4)]Gal(b1-4)Glc
Summary of the method: as §1

[5] = molecular target: Neu5Ac(a2-3)[GalNAc(b1-4)]Gal(b1-4)GlcNAc
Summary of the method: as §1

[6] = molecular target: Neu5Ac(a2-3)[Neu5Ac(a2-6)]GalNAc
Summary of the method: as §1

Neu5Ac(a2-6)Gal = molecular target: Neu5Ac(a2-6)Gal
Summary of the method: as §1

Neu5Ac(a2-6)Gal(b1-4)Glc = molecular target: Neu5Ac(a2-6)Gal(b1-4)Glc
Summary of the method: as §1

[7] = molecular target: Neu5Ac(a2-6)Gal(b1-4)GlcNAc
Summary of the method: as §1

[8] = molecular target: Neu5Ac(a2-6)Gal(b1-4)GlcNAc(b1-2)Man(a1-3)[Gal(b1-4)GlcNAc(b1-2)Man(a1-6)]Man(b1-4)GlcNAc(b1-4)GlcNAc
Summary of the method: as §1

[9] = molecular target: Neu5Ac(a2-6)Gal(b1-4)GlcNAc(b1-2)Man(a1-3)[GlcNAc(b1-2)Man(a1-6)]Man(b1-4)GlcNAc(b1-4)GlcNAc
Summary of the method: as §1

[10] = molecular target: Neu5Ac(a2-6)Gal(b1-4)GlcNAc(b1-2)Man(a1-3)[GlcNAc(b1-2)Man(b1-4)GlcNAc(b1-2)Man(a1-6)]Man(b1-4)GlcNAc(b1-4)GlcNAc
Summary of the method: as §1

[11] = molecular target: Neu5Ac(a2-6)Gal(b1-4)GlcNAc(b1-2)Man(a1-3)[Neu5Ac(a2-6)Gal(b1-4)GlcNAc(b1-2)Man(a1-6)]Man(b1-4)GlcNAc(b1-4)GlcNAc
Summary of the method: as §1

[12] = molecular target: Neu5Ac(a2-6)Gal(b1-4)GlcNAc(b1-2)Man(a1-6)[Gal(b1-4)GlcNAc(b1-2)Man(a1-3)]Man(b1-4)GlcNAc(b1-4)GlcNAc
Summary of the method: as §1

[13] = molecular target: Neu5Ac(a2-6)Gal(b1-4)GlcNAc(b1-2)Man(a1-6)[GlcNAc(b1-2)Man(a1-3)]Man(b1-4)GlcNAc(b1-4)GlcNAc
Summary of the method: as §1

[14] = molecular target: Neu5Ac(a2-6)Gal(b1-4)GlcNAc(b1-3)Gal(b1-4)GlcNAc
Summary of the method: as §1

[15] = molecular target: Neu5Ac(a2-6)Gal(b1-4)GlcNAc(b1-3)Gal(b1-4)[Fuc(a1-3)]GlcNAc(b1-3)Gal(b1-4)[Fuc(a1-3)]GlcNAc
Summary of the method: as §1

[16] = molecular target: Neu5Ac(a2-6)Gal(b1-4)GlcNAc6S
Summary of the method: as §1

Neu5Ac(a2-6)GalNAc = molecular target: Neu5Ac(a2-6)GalNAc
Summary of the method: as §1

[17] = molecular target: Neu5Ac(a2-6)GalNAc(b1-4)GlcNAc
Summary of the method: as §1

Neu5Ac(a2-8)Neu5Ac = molecular target: Neu5Ac(a2-8)Neu5Ac
Summary of the method: as §1

[18] = molecular target: Neu5Ac(a2-8)Neu5Ac(a2-3)Gal(b1-4)Glc
Summary of the method: as §1

[19] = molecular target: Neu5Ac(a2-8)Neu5Ac(a2-3)[GalNAc(b1-4)]Gal(b1-4)Glc
Summary of the method: as §1

[20] = molecular target: Neu5Ac(a2-8)Neu5Ac(a2-8)Neu5Ac
Summary of the method: as §1

[21] = molecular target: Neu5Ac(a2-8)Neu5Ac(a2-8)Neu5Ac(a2-3)Gal(b1-4)Glc
Summary of the method: as §1

[22] = molecular target: Neu5Ac(a2-8)Neu5Ac(a2-8)Neu5Ac(a2-3)[GalNAc(b1-4)]Gal(b1-4)Glc
Summary of the method: as §1

[23] = molecular target: Neu5Ac(a2-8)Neu5Ac(a2-8)Neu5Ac(a2-8)Neu5Ac(a2-3)[GalNAc(b1-4)]Gal(b1-4)Glc
Summary of the method: as §1

Neu5Ac(b1-6)GalNAc = molecular target: Neu5Ac(b1-6)GalNAc
Summary of the method: as §1

[24] = molecular target: Neu5Ac(b2-6)Gal(b1-4)GlcNAc
Summary of the method: as §1

Neu5Ac(b2-6)GalNAc = molecular target: Neu5Ac(b2-6)GalNAc
Summary of the method: as §1

[25] = molecular target: Neu5Ac9Ac(a2-6)Gal(b1-4)GlcNAc
Summary of the method: as §1

[26] = molecular target: Neu5Gc(a2-3)Gal(b1-3)GlcNAc
Summary of the method: as §1

[27] = molecular target: Neu5Gc(a2-3)Gal(b1-3)[Fuc(a1-4)]GlcNAc
Summary of the method: as §1

Neu5Gc(a2-3)Gal(b1-4)Glc = molecular target: Neu5Gc(a2-3)Gal(b1-4)Glc
Summary of the method: as §1

[28] = molecular target: Neu5Gc(a2-3)Gal(b1-4)GlcNAc
Summary of the method: as §1

[29] = molecular target: Neu5Gc(a2-3)Gal(b1-4)[Fuc(a1-3)]GlcNAc
Summary of the method: as §1

[30] = molecular target: Neu5Gc(a2-6)Gal(b1-4)GlcNAc
Summary of the method: as §1

Neu5Gc(a2-6)GalNAc = molecular target: Neu5Gc(a2-6)GalNAc
Summary of the method: as §1

[31] = molecular target: Neu5Gc(b2-6)Gal(b1-4)GlcNAc
Summary of the method: as §1

B1: CD83 (Homo sapiens) (protein)
chain: MSRGLQLLLLSCAYSLAPATPEVKVACSEDVDLPCTAPWDPQVPYTVSWVKLLEGGEERMETPQEDHLRGQHYHQKGQNGSFDAPNERPYSLKIRNTTSCNSGTYRCTLQDPDGQRNLSGKVILRVTGCPAQRKEETFKKYRAETSEQKLISEEDLSRGSDDDDKAEPRGP
glycan array binding signal (z-score) [1]: -0.118 | glycan array binding signal (z-score) [2]: -0.131 | glycan array binding signal (z-score) (Neu5Ac(a2-3)GalNAc): -0.207 | glycan array binding signal (z-score) [3]: -0.291 | glycan array binding signal (z-score) [4]: -0.08 | glycan array binding signal (z-score) [5]: -0.051 | glycan array binding signal (z-score) [6]: 0.015 | glycan array binding signal (z-score) (Neu5Ac(a2-6)Gal): -0.277 | glycan array binding signal (z-score) (Neu5Ac(a2-6)Gal(b1-4)Glc): -0.208 | glycan array binding signal (z-score) [7]: -0.02 | glycan array binding signal (z-score) [8]: -0.14 | glycan array binding signal (z-score) [9]: -0.279 | glycan array binding signal (z-score) [10]: -0.155 | glycan array binding signal (z-score) [11]: -0.274 | glycan array binding signal (z-score) [12]: -0.15 | glycan array binding signal (z-score) [13]: -0.283 | glycan array binding signal (z-score) [14]: -0.298 | glycan array binding signal (z-score) [15]: 0.014 | glycan array binding signal (z-score) [16]: -0.123 | glycan array binding signal (z-score) (Neu5Ac(a2-6)GalNAc): -0.209 | glycan array binding signal (z-score) [17]: -0.217 | glycan array binding signal (z-score) (Neu5Ac(a2-8)Neu5Ac): 0.194 | glycan array binding signal (z-score) [18]: 1.41 | glycan array binding signal (z-score) [19]: 0.494 | glycan array binding signal (z-score) [20]: 2.22 | glycan array binding signal (z-score) [21]: 3.7 | glycan array binding signal (z-score) [22]: 2.88 | glycan array binding signal (z-score) [23]: 0.341 | glycan array binding signal (z-score) (Neu5Ac(b1-6)GalNAc): -0.268 | glycan array binding signal (z-score) [24]: -0.351 | glycan array binding signal (z-score) (Neu5Ac(b2-6)GalNAc): -0.317 | glycan array binding signal (z-score) [25]: 0.02 | glycan array binding signal (z-score) [26]: 0.93 | glycan array binding signal (z-score) [27]: -0.042 | glycan array binding signal (z-score) (Neu5Gc(a2-3)Gal(b1-4)Glc): 1.04 | glycan array binding signal (z-score) [28]: 0.791 | glycan array binding signal (z-score) [29]: -0.098 | glycan array binding signal (z-score) [30]: 0.595 | glycan array binding signal (z-score) (Neu5Gc(a2-6)GalNAc): 0.473 | glycan array binding signal (z-score) [31]: -0.214

— the supplement of paper PMC8728848
